The supplement of paper PMC7266297
The other results are listed elsewhere or left out. Many values rest on one well or one pass, so single values are uncertain.

Each molecule was assayed on KB-3-1 (assay: growth inhibition relative to DMSO control (SRB); cervical cancer cells: KB-3-1 is the parent and KB-V1 overexpresses MDR1; SRB is the sulforhodamine B stain; higher = more growth inhibition). Details: 1 µM; 72 h.
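Note: Read-out is SRB optical density at 490 nm, with the control being wells given 0.5% DMSO vehicle, and compound added one day after cells were plated.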

Compound	growth inhibition [%]
Cc1cc(C2CCCCC2)n(O)c(=O)c1 [Ciclopirox ethanolamine]	22.7
CCOC(=O)c1ccc(NC2CCCCC2)c(N)c1 [Ferrostatin-1 (Fer-1)]	0.442
c1cn2cc(-c3ccc4cn[nH]c4c3)nc(Nc3ccc(N4CCOCC4)cc3)c2n1	45.9
COc1ccccc1OCC(O)CN1CCN(CC(=O)Nc2c(C)cccc2C)CC1 (centres undefined) [Ranolazine 2HCl]	9.53
Cc1nnc(C(C)C)n1C1C[C@H]2CC[C@@H](C1)N2CC[C@H](NC(=O)C1CCC(F)(F)CC1)c1ccccc1 (stereo in doubt) [Maraviroc]	46.8
O=c1ncccn1[C@@H]1O[C@H](CO)[C@@H](O)[C@H]1O [Zebularine]	4.69
Cc1cc(-c2ccc(CC(=O)Nc3ccc(-c4cccnc4)cc3)cc2)ccn1	6.41
CNC[C@H](O)c1ccc(O)c(O)c1 [Epinephrine Bitartrate]	< 0
CC(C)c1cc(C(=O)N2Cc3ccc(CN4CCN(C)CC4)cc3C2)c(O)cc1O	91.7
O=C(Nc1cccc(Cl)c1)c1ccccn1	21.4
COc1cc2c(cc1O)CC[C@@H]1[C@@H]2CC[C@]2(C)[C@@H](O)CC[C@@H]12 [2-Methoxyestradiol (2-MeOE2)]	38.8
CCOc1cc2ncc(C#N)c(Nc3ccc(F)c(Cl)c3)c2cc1NC(=O)/C=C/CN(C)C [Pelitinib (EKB-569)]	63.8
O=C(Nc1c[nH]nc1-c1nc2ccc(CN3CCOCC3)cc2[nH]1)NC1CC1	82.5
CN1CCN(c2nc(C3=C(c4c[nH]c5ccccc45)C(=O)NC3=O)c3ccccc3n2)CC1 [Sotrastaurin]	10.3
